Results published in the antibiotic and cytotoxicity screens of Wong et al. (2023).
This is one part of the list.

The molecules below were run on HSkMC (human skeletal muscle cells) (assay: cytotoxicity call (relative viability < 0.9)). Details: 10 µM.

Row | SMILES | cytotoxicity call
1 | C[C@@H]1CN([C@H](C)CO)C(=O)c2cc(NC(=O)Cc3ccccc3)ccc2O[C@H]1CN(C)Cc1ccc(Cl)c(Cl)c1 | inactive
2 | C[C@H]1CN([C@@H](C)CO)C(=O)c2cc(C#CCN(C)C)cnc2O[C@H]1CN(C)Cc1cccc(C(=O)O)c1 | inactive
3 | C[C@@H]1CN([C@@H](C)CO)C(=O)CCCn2nncc2CO[C@H]1CN(C)C(=O)Nc1cccc(Oc2ccccn2)c1 | inactive
4 | C[C@@H]1CN([C@H](C)CO)S(=O)(=O)c2ccc(C#CCN(C)C)cc2O[C@H]1CN(C)Cc1cccnc1 | inactive
5 | COc1ccc(S(=O)(=O)N(C)C[C@@H]2OCCCC[C@H](C)Oc3ccc(NC(=O)Nc4ccc(F)cc4)cc3C(=O)N([C@H](C)CO)C[C@H]2C)cc1 | inactive
6 | COc1ccc(S(=O)(=O)N(C)C[C@@H]2Oc3c(NC(=O)Nc4c(C)noc4C)cccc3C(=O)N([C@H](C)CO)C[C@H]2C)cc1 | inactive
7 | O=c1cc[nH]c(=O)[nH]1 | inactive
8 | O=C(OC(C(F)(F)F)C(F)(F)F)N1CCN(Cc2ccc(C(F)(F)F)cc2N2CCCC2)CC1 | inactive
9 | C[C@H](CO)N1C[C@H](C)[C@H](CN(C)S(=O)(=O)c2cccs2)Oc2c(NC(=O)Nc3cccc4ccccc34)cccc2C1=O | inactive
10 | CO[C@H](CN(C)C(=O)c1ccc2c(c1)OCO2)[C@@H](C)CN([C@H](C)CO)S(=O)(=O)c1ccc(C)cc1 | inactive
11 | C[C@H]1CN([C@@H](C)CO)C(=O)Cc2cc(NC(=O)Cn3cnnn3)ccc2O[C@@H]1CN(C)Cc1ccc2c(c1)OCO2 | inactive
12 | CO[C@H]1CN(C)C(=O)c2cc(NS(C)(=O)=O)ccc2OC[C@H](C)N(C(=O)c2ccc3c(c2)OCO3)C[C@H]1C | inactive
13 | C[C@H](CO)N1C[C@H](C)[C@H](CN(C)S(=O)(=O)c2cn(C)cn2)Oc2ccc(NC(=O)Cc3ccccc3)cc2CC1=O | inactive
14 | c1ccc(Oc2cccc(Oc3ccccc3)c2)cc1 | inactive
15 | C[C@H](O)C#Cc1ccc2c(c1)O[C@H](CN(C)C(=O)Nc1ccccc1)[C@@H](C)CN([C@@H](C)CO)S2(=O)=O | inactive
16 | COc1ccccc1S(=O)(=O)N1C[C@H](O)COC[C@H]2O[C@@H](CC(=O)O)CC[C@@H]21 | inactive
17 | O=C(C[C@H]1CC[C@@H]2[C@H](COC[C@@H](O)CN2S(=O)(=O)c2ccc(F)cc2)O1)N[C@@H]1CCN(Cc2ccccc2)C1 | inactive
18 | CO[C@@H]1CN(C)C(=O)c2cc(NS(C)(=O)=O)ccc2OC[C@H](C)N(C(=O)c2ccc3c(c2)OCO3)C[C@H]1C | inactive
19 | C[C@@H]1CN([C@H](C)CO)C(=O)c2cccc(NC(=O)c3cnccn3)c2O[C@H]1CN(C)S(=O)(=O)c1ccc(Cl)cc1 | inactive
20 | CCNC1CC(N)C(OC2OC(CN)=CCC2N)C(O)C1OC1OCC(C)(O)C(NC)C1O.O=S(=O)(O)O.O=S(=O)(O)O (stereo not given) | inactive

Row | SMILES | cytotoxicity call
21 | CS(=O)(=O)CCNCc1ccc(-c2ccc3ncnc(Nc4ccc(OCc5cccc(F)c5)c(Cl)c4)c3c2)o1 | active
22 | C[C@@H]1CCCCO[C@H](CN(C)C(=O)C2CCCCC2)[C@H](C)CN([C@@H](C)CO)C(=O)c2cc(NS(=O)(=O)c3ccc(F)cc3)ccc2O1 | inactive
23 | O=C(C[C@@H]1CC[C@H]2[C@@H](COC[C@@H](O)CN2C(=O)Nc2cccc(F)c2)O1)NCc1ccccc1Cl | inactive
24 | Cn1ccc(=O)[nH]c1=O | inactive
25 | COc1cccc(-c2ccc3c(c2)O[C@@H](CN(C)C(=O)C2CCC2)[C@@H](C)CN([C@@H](C)CO)S3(=O)=O)c1 | inactive
26 | CC1=C(/C=C/C(C)=C/C=C/C(C)=C\C(=O)O)C(C)(C)CCC1 | inactive
27 | C[C@@H]1CCCCO[C@@H](CN(C)Cc2ccccc2)[C@@H](C)CN([C@@H](C)CO)C(=O)c2cc(NS(=O)(=O)c3ccc(Cl)cc3)ccc2O1 | inactive
28 | COC1C(=O)C2(C)C(OC)CC3OCC3(OC(C)=O)C2C(OC(=O)c2ccccc2)C2(O)CC(OC(=O)C(O)C(NC(=O)OC(C)(C)C)c3ccccc3)C(C)=C1C2(C)C (stereo not given) | inactive
29 | C[C@@H]1CN([C@@H](C)CO)C(=O)c2cc(C#CC3CCCC3)cnc2O[C@H]1CN(C)C(=O)Cc1ccccn1 | inactive
30 | C[C@H]1CCCCO[C@H](CN(C)C(=O)NC2CCCCC2)[C@@H](C)CN([C@@H](C)CO)C(=O)c2cc(NS(=O)(=O)c3ccc(F)cc3)ccc2O1 | inactive
31 | Nc1ccc(C(F)(F)F)cc1Cl | inactive
32 | C[C@@H]1CCCCO[C@@H](CN(C)Cc2ccc(C(F)(F)F)cc2)[C@H](C)CN([C@@H](C)CO)C(=O)c2cc(NC(=O)c3ccncc3)ccc2O1 | inactive
33 | CCC(=O)Nc1ccc2c(c1)C(=O)N(C)C[C@H](OC)[C@@H](C)CN(C(=O)CN1CCOCC1)[C@H](C)CO2 | inactive
34 | CO[C@H]1CN(C)C(=O)c2ccc(NS(=O)(=O)CC(F)(F)F)cc2OC[C@H](C)N(C(=O)c2ccc3c(c2)OCO3)C[C@@H]1C | inactive
35 | C[C@@H]1CN([C@@H](C)CO)C(=O)c2cccc(NC(=O)Nc3ccc(F)cc3)c2O[C@H]1CN(C)CC1CCCCC1 | inactive
36 | O=c1ccc(=O)n(CNc2nccs2)[nH]1 | inactive
37 | C[C@@H]1CN([C@H](C)CO)C(=O)c2cccc(NC(=O)Nc3ccc(F)cc3)c2O[C@@H]1CN(C)CC1CCCCC1 | inactive
38 | C[C@]12C[C@]3(O)O[C@@H](O1)[C@]1(COC(=O)c4ccccc4)[C@H]3C[C@@]12O[C@@H]1O[C@H](CO)[C@@H](O)[C@H](O)[C@H]1O | inactive
39 | C[C@@H]1CCCCO[C@@H](CN(C)Cc2ccc(Cl)c(Cl)c2)[C@@H](C)CN([C@H](C)CO)C(=O)c2cc(NS(=O)(=O)c3ccc(F)cc3)ccc2O1 | inactive
40 | Cc1ccc(S(=O)(=O)Nc2ccc3c(c2)CC(=O)N([C@@H](C)CO)C[C@@H](C)[C@@H](CN(C)Cc2ccc(-c4ccccc4)cc2)O3)cc1 | active
